Some of the results follow.

This assay relates to PfSIP2 AP2 domain 1 (GST-tagged). The experiment in a line: gcPBM binding intensity (ln(normalized median fluorescence intensity)); higher = stronger DNA binding. Put shortly: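 Binding intensity is the highest Masliner-normalised natural-log median intensity over replicate spots in either probe orientation. To obtain it, GST-tagged P. falciparum DNA-binding domains made in E. coli were incubated for 1 h on an Agilent 4 × 180k array of primer-extended double-stranded 36-bp intergenic genomic probes plus negative controls. Detection used Alexa488 anti-GST antibody with scanning at 488 nm.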
For the sequence “ATATGTAAAATATGGTGTACAATCAAATAAAAAAAA [XGTACX_site6270]”, the “gcPBM binding intensity (ln)” value was determined as 7.16.
As to “ATTAATATATTTACCACACACCCATTTCGATTTTAT [CACACA_site3605]”, the “gcPBM binding intensity (ln)” value was 6.99.
Take “CATATAAAAGGACACACACACACATATATATATATA [CACACA_site4674]”: the “gcPBM binding intensity (ln)” value is 9.23.
Regarding “TATTTTATTTTTTGTTGTACATATATATTATATATA [XGTACX_site4513]”, the “gcPBM binding intensity (ln)” value amounted to 7.28.
For “GATATATTACTTAAAATACACACCATGGAAAAGTTT [CACACA_site2606]”, the “gcPBM binding intensity (ln)” value was determined as 7.
The result for “GAATATGTTAACATTTGTACATAAAATTTTTTACAA [XGTACX_site2444]” reads 7.13.
The result for “ATGTTTAAATTTTTCAGTACATATATTCTAGTAAAA [XGTACX_site1010]” reads 7.15; that for “AATATATATATATATCCACACACATACATATATTAA [CACACA_site7907]”, 7.41.
For “ATGGTTTTTATTTTATGTACTTACTAAAATGAATAA [XGTACX_site4317]”, the “gcPBM binding intensity (ln)” value amounted to 7.43.
Regarding “TACATAAAAATATATGCATGTTCTTATTTAATAAAA [TGCATGCA_site743]”, the “gcPBM binding intensity (ln)” value came out at 6.75.
Consider “ATAAAATAAATATAACCACACACGAAAGAGAGAGAA [CACACA_site9075]”, for which the “gcPBM binding intensity (ln)” value came to 7.24.
For “TTTTTAGGAAAGGCGGCACACATTTATATATTTATT [CACACA_site3672]”, the “gcPBM binding intensity (ln)” value was determined as 6.78.
As for TTCGCCCTAAATAGAGTGCATTATATATATTAATAT, the “gcPBM binding intensity (ln)” value was 9.49.
Consider “TTCCAACCAATACAAACATGCATTTGAAAAAATGTA [TGCATGCA_site119]”, for which the “gcPBM binding intensity (ln)” value came out at 6.92.
The result for “TTTATTTTATCATTTGCACACGCACGCCCACATAAA [CACACA_site353]” reads 7.85.
The value for “CAAAATATATTGAATTGTACATAAAAATAAAAATTA [XGTACX_site4193]” was 6.96.
For the sequence “AGCAGTCAGCAGGACAGTACACAGTAGCCAGTAACT [XGTACX_site1999]”, the “gcPBM binding intensity (ln)” value was determined as 6.54.
For “ATTTTTTTGGAATTCACACACAAAAAAAAAAATAAA [CACACA_site2081]”, the “gcPBM binding intensity (ln)” value turned out to be 7.03.
On to “AATTAGACATAATATACACACATATATTATATATAT [CACACA_site2691]”, for which the “gcPBM binding intensity (ln)” value was 7.71.
The result for TTCAAAAGATATATCGTGCACATATATATGATGAAA reads 10.2.
With “TGGAGATAAAATAAAACACACACATATATATATATA [CACACA_site8683]”, the “gcPBM binding intensity (ln)” value came to 9.06.
With “ATACATTCTTATTACTGTACAGGGTTAATTATTTGT [XGTACX_site948]”, the “gcPBM binding intensity (ln)” value is 7.23.
Turning to “ATTATTTTATTTATTGGTACGTAATTGTAGATTTCT [XGTACX_site3697]”, the “gcPBM binding intensity (ln)” value is 7.01.
The result for “GCAAAAACAAACGTCACACATACAAAGGCCGTGTAA [CACACA_site6043]” reads 6.65; that for “ATGTTGAGTATATATACACACATACAGATATATATA [CACACA_site4967]”, 7.16; that for “TAGGTATATAAATAATGTACATATAAACTATATAGA [XGTACX_site2597]”, 7.06.
The result for “TCCACACAATTTATAACATGCAAAAAGGCAATAATA [TGCATGCA_site773]” reads 7.06.
For “TTCTCAAAGAAGAAAAAGTTTTTTTAATTTTTCTTT [XGTACX_negctrl_site543]”, the “gcPBM binding intensity (ln)” value is 6.65.
As to “AACCAATTATATTTACGTACGTACGGTTTTTTATAT [XGTACX_site1291]”, the “gcPBM binding intensity (ln)” value is 7.07.
The value for “ACATATAAAATGTATACACACAAATATTACATATAT [CACACA_site1472]” was 7.15; that for “AATAAAAAATATAACACAAATATGTATATATATATA [TGCATGCA_negctrl_site245]” was 7.91; that for “CAAAAAAAAAAAAAAAATAAATAAAGGAAATAAAAA [CACACA_negctrl_site20]” was 6.54.
Turning to “AATATATTTTTTTTTTGTACATATTGTAAAATAATA [XGTACX_site6805]”, the “gcPBM binding intensity (ln)” value stood at 6.99.
Take “ATATATTAATATACTCGTACATATTCTTATTGTGTA [XGTACX_site3728]”: the “gcPBM binding intensity (ln)” value was found to be 6.92.
The value for “GTGTAGTTAAAAAAAAGTACAGATTTTTTTTTTTTT [XGTACX_site849]” was 7.2.
The result for “AAAAAAAAAAAAACAAGTACAAAGGATAGAAAAAAA [XGTACX_site4133]” reads 7.22.
The result for “ATAGAATATTGATATTGTACGTTATCTTAAAACAAT [XGTACX_site1702]” reads 7.08.
Consider “ATAAGAACGTCTATGTGTACGCAGCAAAACTGAGTT [XGTACX_site6385]”, for which the “gcPBM binding intensity (ln)” value turned out to be 6.71.
Regarding “CACATTTAGAAATAGTTTTATTTTGTATATTCTATT [CACACA_negctrl_site1382]”, the “gcPBM binding intensity (ln)” value amounted to 6.72.
For the sequence “TATACATTTATGTACACACACATATCTGTATATTTA [CACACA_site5617]”, the “gcPBM binding intensity (ln)” value was determined as 6.95.
The value for “TTTTGTATATATCACATTAAAAGAAAAAAATATATG [GTGCAC_negctrl_site120]” was 6.95; that for “GTATGTGTATGTGTATGTACATATGTATGTATAAAA [XGTACX_site8191]” was 7.59.
The result for “TATATATATTTCCAGTGTACTTATTTTTTAATCAAT [XGTACX_site8220]” reads 7.28; that for TAAAATATATTGCCAGTGCATAATATATGTAATTAT, 7.63; that for “TTTTTTAAATATTAAAAATGGGATCTTATAACATAT [GTGCAC_negctrl_site666]”, 6.91.
With “TGTATAAACCCACGTACACACACTAAGTATATCCAA [CACACA_site1605]”, the “gcPBM binding intensity (ln)” value is 7.38.
The result for “AACTAATAAAAAAAAAAAACATTAAACAGGACAAAT [XGTACX_negctrl_site287]” reads 6.92; that for “TAAACAAATAAATAAACACACAATATAGGTATATAT [CACACA_site7739]”, 7.13; that for “TTATTTTTAACGTACGCACACATATAAATATATTTA [CACACA_site1976]”, 7.35.
Regarding “AATAAAATATACTATTGTACATATGGAACTACTTGA [XGTACX_site8928]”, the “gcPBM binding intensity (ln)” value was 6.89.
“TTGTTTTTAGTTTATACACACCATATTAAAATAATG [CACACA_site5675]”: the “gcPBM binding intensity (ln)” value worked out at 7.32.
For “ATTTATTATATATAGTGTACGTTCTTAATTATAATT [XGTACX_site7480]”, the “gcPBM binding intensity (ln)” value was 7.02.
In the case of “TTGTATTACATAAATGTTCTTTATTATTTGATAAAA [CACACA_negctrl_site903]”, the “gcPBM binding intensity (ln)” value stood at 6.79.
“TATATAATATATTAATGTACTTAAAATATATTCTAT [XGTACX_site1235]”: the “gcPBM binding intensity (ln)” value was determined as 6.96.
On to “TTTATTTTAAATTTACGTACATAATTAATCATATTT [XGTACX_site7529]”, for which the “gcPBM binding intensity (ln)” value is 7.23.
As to “ATAAAAAATTAGGACTGTACATAATTTTTGTGATTT [XGTACX_site2857]”, the “gcPBM binding intensity (ln)” value was 6.86.
“TATATATATAAGGATAGTACATATATTTATATGATT [XGTACX_site4954]”: the “gcPBM binding intensity (ln)” value is 8.8.
The value for “ATGAAATTTATATCATGTACATACAAGAGAAAAAAA [XGTACX_site3326]” was 7; that for “AAAATTATAAAATGGGCACACATGAATATTGTAGTA [CACACA_site5261]” was 6.82; that for “GTATAATAAATGATAGCACACATATGTACTTATATA [CACACA_site8188]” was 7.12.
Consider “TTATATATTTCTATTGCACACTATATTTTATGAAGA [CACACA_site2910]”, for which the “gcPBM binding intensity (ln)” value is 7.36.
The value for “TTAACTTATTTGTAAAGTACATTAATAAAAAGAAAA [XGTACX_site1588]” was 6.91; that for “GACTACACACAAGGGTGTACATATATATTATATATA [XGTACX_site2247]” was 7.31.
The result for “AGGTTATAATTGTTTTCACACATTTAAAAATGTTAT [CACACA_site5097]” reads 7.
In the case of “TTATAAAAATACAGTTAACACACATGTGTATATATA [CACACA_site9257]”, the “gcPBM binding intensity (ln)” value was determined as 6.99.
With “AAAAAAAAAATATACACACACACATACCCATAAATA [CACACA_site5981]”, the “gcPBM binding intensity (ln)” value stood at 7.01.
Regarding “GATCGCATGAAATGAACACACATAAAAAAAATATAC [CACACA_site4087]”, the “gcPBM binding intensity (ln)” value was found to be 7.42.
With “AAAATAATCTTATGCACACCAAAAATTTATATAATC [CACACA_site1235]”, the “gcPBM binding intensity (ln)” value amounted to 7.76.
Consider TAATGCAACATTTATGTGCACATAAATATTTTTTAA, for which the “gcPBM binding intensity (ln)” value was determined as 8.13.
For the sequence “AAAACACAATTTATTACACACATATATTATAGATTA [CACACA_site6780]”, the “gcPBM binding intensity (ln)” value amounted to 6.77.
As to “GAGTTTTAATGTAATAGTACTTTAATTATTATATAT [XGTACX_site4527]”, the “gcPBM binding intensity (ln)” value worked out at 6.97.
Consider “TTTTTTTTTTATTCATGTACGTATTTAAATAATTCT [XGTACX_site2651]”, for which the “gcPBM binding intensity (ln)” value amounted to 6.94.
With “ATCTTTTATATATTCACACATAAAATTATACAGATA [CACACA_site5277]”, the “gcPBM binding intensity (ln)” value came to 7.38.
As for “ATATATATATATAATGCACACATTATAAATTATGTA [CACACA_site5802]”, the “gcPBM binding intensity (ln)” value turned out to be 9.09.
On to “AATAAATAAATAAATATATATATATATATATATATA [CACACA_negctrl_site708]”, for which the “gcPBM binding intensity (ln)” value is 9.71.
On to “TATTTTTATTTTACATTATTTGTTTATAATTCTTAA [CACACA_negctrl_site1358]”, for which the “gcPBM binding intensity (ln)” value was 7.08.
The result for “TGTATATACATAAAGTGTACGTATATTTATATATAT [XGTACX_site4320]” reads 7.98; that for “AAAAAAAAAAAAAACACACAAACAAATGAATAAATA [CACACA_site3300]”, 7.13.
The value for “TAATTATACTTATTTTGTACGCAATATTTAAAATAA [XGTACX_site8516]” was 6.99; that for “ATTTCTCTATCGTAATGTACAAAAAAAAGGAAAAAA [XGTACX_site1323]” was 7.14.
In the case of “ACATATAAATGATATGTACACACATTTATATATATA [CACACA_site9152]”, the “gcPBM binding intensity (ln)” value came out at 8.17.
For “GACAAATGAAAAGATTGTACATGTATTTGAAGATTA [XGTACX_site6775]”, the “gcPBM binding intensity (ln)” value was determined as 6.84.
Take “TGATTATATATAAATGTATGCATGTCTATTATGCTA [TGCATGCA_site543]”: the “gcPBM binding intensity (ln)” value was 6.89.
“TACACAAAAATTTATACACACACATATATAATATAT [CACACA_site7931]”: the “gcPBM binding intensity (ln)” value was found to be 7.13.
The value for “TCTTTTATATTTTTTTGTACACAAGAATAAAGAAAA [XGTACX_site3394]” was 7.17; that for “TATATATATATATATTGTACACATACATGTAGTTTT [XGTACX_site4848]” was 9.7.
Regarding “TATATATATATATAGGTGCAATATTGAAAAAATATC [GTGCAC_site9535]”, the “gcPBM binding intensity (ln)” value stood at 9.82.
Take “AAAGTAATATATAATACATGCGTAAATATTTATGTA [TGCATGCA_site254]”: the “gcPBM binding intensity (ln)” value is 7.
The value for “TTTTGGATGAACAGTACATGCAAAAACAAACTTGTA [TGCATGCA_site16]” was 6.79.

The values above are taken from the supplement of paper PMC11417369.
